The source of these data is the supplement of paper PMC10126150.

The test system of the series is ATP. Nature of the series: switch fluorescence ratio, 500 uM ATP over buffer (Cy3 cluster intensity, sum of 5 cycles each) (fold (ratio)); higher = stronger signal-on switching upon ATP binding; sequences stand for … in TCGTCGGCAGCGTCAGATGTGTATAAGAGACAGTTTTTTTTTTTTTTTTTTTTTTTTT…TC. To be noted: aptamer strand: ATP DNA aptamer (quencher-CACCTGGGGGAGTATTGCGGAGGAAGG + anchor), 100 nM annealed; ATP concentration: 500 uM; one replicate. Summed up: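 Imaging in selection buffer was followed by imaging after 15 min with 500 uM ATP at 22 °C, for Cy3-labelled switching-strand clusters annealed to 100 nM quencher-labelled ATP aptamer on a modified Illumina MiSeq flow-cell. Five of these buffer/ATP cycles ran, separated by NaOH stripping and re-annealing. The fluorescence ratio per cluster is summed target-cycle over summed buffer-cycle Cy3 intensity, averaged per switch-domain sequence; clusters outside 100-1000 RFU were removed.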

Sequences with one replicate were seen in a single cluster, so their values are uncertain.
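Note: ATP exposure 15 min at 22 °C before imaging.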

In the case of ATATTCATTG, the switch fluorescence ratio came to 0.96.
In the case of GATATTACCA it was 1.05; in that of ATTTGTGCGC, 0.963; in that of ACCCAACTAA, 1.13.
In the case of CTTACACTGA it was 1.01.
TTATGGCCCG: the switch fluorescence ratio worked out at 0.967.
In the case of TGGGGTTTTC it was 1.02.
For TGGATCACTG the value was 0.983.
In the case of ATAGTAGAGA it was 1.01; in that of GGTACGTAAA, 1.18.
On to CTATCCGTGG, for which the switch fluorescence ratio was 0.997.
In the case of TGAGAATACT it was 1.03; in that of CAAGGGGTAG, 0.973.
Consider GAAGTTCCGT, for which the switch fluorescence ratio was 1.06.
In the case of ATTACTTCTG it was 0.951.
In the case of TCCTCACCG it was 1.11.
In the case of TCAGGTCGAC it was 1.01.
GACAGTCTGT: the switch fluorescence ratio amounted to 0.985.
For the sequence AGAACCATTA, the switch fluorescence ratio is 0.958.
In the case of ACGTAGTATC it was 1; in that of CGTAGCTGGG, 1.13.
In the case of TGGGTTCGCC it was 0.977.
In the case of ATCGAGTTCA, the switch fluorescence ratio was 0.93.
For AAATATCGCG the value was 0.988; for GGGTCCAGTG, 1.02.
For GGGGAGGCGA the value was 0.963; for GTTCATACCG, 1.01; for AAGCTCTTAA, 0.999.
For TCATGTCCTT the value was 0.992; for TCCCCAGGCA, 1.02.
For the sequence ATAACTTCCT, the switch fluorescence ratio came out at 1.45.
For ATCTGGGTT the value was 1.03; for CCGTGATCAA, 1.61; for ATCATGCTGC, 1.03.
For TATCATTCT the value was 1.01; for TGGTTGACTC, 1.03.
For CAAATACTGT the value was 1.07; for TCCAAACTGA, 0.945; for CCGGGGTAGC, 1.19.
Take GAGACTGCCC: the switch fluorescence ratio was determined as 1.06.
For CTGGAATGGT the value was 1.08; for ATTTTCGAT, 0.997.
For CTAGATAAAT the value was 1.
In the case of ATTGAGACGG it was 0.998; in that of TATGGAGGTC, 0.931.
Take GGCATAGCGA: the switch fluorescence ratio turned out to be 1.07.
For GTTGGCTGT the value was 0.992; for CGTGATATGA, 1.
For AAGGCGTGAT the value was 1.02.
In the case of GAGAGCCGCA it was 1.05; in that of ATGCACGACC, 1.19; in that of GCGGTAAGGA, 1.02.
Turning to TTTGAGCCAA, the switch fluorescence ratio amounted to 0.983.
In the case of ACTGGGAGTT it was 0.985; in that of GTAAATGAGG, 1.01; in that of GTAGGGTGAA, 1.
In the case of AGATACGATC it was 1.02; in that of GCATGGGGGT, 1.02; in that of ATTATTCGCG, 0.962.
In the case of CTTGCTAATG it was 1.01; in that of TAGTACAGAG, 1.03; in that of AGGGAGATAC, 1.05.
Take AATAGGAGC: the switch fluorescence ratio was found to be 0.978.
In the case of GTGTTTCCCA, the switch fluorescence ratio was determined as 1.01.
In the case of AAGGTAGCG it was 1.02.
For the sequence ATGAGGCGTT, the switch fluorescence ratio was determined as 1.04.
For CTCGCTAGTC the value was 1.75; for TGGGCTCGGC, 1.
For GAAAAGGACT the value was 1.01; for TAAGATCGTC, 1.03.
In the case of ATTCATGCAT it was 1.02; in that of GGGTCCCCCA, 0.974; in that of CTTGGGCTAT, 0.975.
On to GTTTATGAAC, for which the switch fluorescence ratio came out at 1.18.
As for GATCCAAAAT, the switch fluorescence ratio came to 1.04.
Regarding TTTTAATCAA, the switch fluorescence ratio worked out at 0.989.
In the case of ATCGAGAGCT it was 0.988.
On to GTTTGCCTGA, for which the switch fluorescence ratio amounted to 1.
For TTGGA the value was 0.984.
